Read counts are not given, so values of variants with three or more changes are uncertain.
B1: LINE1-mini (parent)
chain: GGCAGAGCUCAACACAGCGUGGCAAAGUGGCUGUGGCUAGACUGCC

Variants of: B1
Experiment: self-cleavage, relative activity (ratio to wild type); higher = more cleavage; in vitro, sequencing; the parent is a self-cleaving ribozyme

| Variant | self-cleavage |
| --- | --- |
| G7A C8G C15A U28C U38A C45G | 0.03 |
| A6U C13A C18U U38G | 0.03 |
| A6U C10G C13G G21C C37U | 0.01 |
| A6U A39C U43A | 0.04 |
| G7A A24G A26U G27A G40C | 0.14 |
| A6U C8U C13A C23G U28G | 0.52 |
| G7A C18G G22C U28C U34C | 0.03 |
| G7A C8U G19C | 0.11 |
| A6U A41G C46A | 2.77 |
| A6U A11G C13U G33A | 0.04 |
| A6U G27A U34G G36A U38C | 0.03 |
| G7A A11G A12C G19C | 0.01 |
| G7A A12G C18A G36C U38C | 0.01 |
| A6U A11G A12U U28A U34C | 0.02 |
| G7A C31A U32G G35U | 0.02 |
| A6G G21U G29C A41C | 0.08 |
| G7A A16U G33U | 0.11 |
| G7A A11U G21A G36U G44U | 0.03 |
| A6U G33U C46U | 0.14 |
| G7A A39U G40C | 0.22 |
| A6U G19U G27U U32C | 0.02 |
| G7A A12C G17A C18A | 0.01 |
| A6U C13U C31G | 0.06 |
| A6U A24U A26C | 0.97 |

| Variant | self-cleavage |
| --- | --- |
| G7A C8G A11G | 0.03 |
| G7A C23G C37A G44A | 0.53 |
| G7A G19A U20A G27A G33U | 0.05 |
| G7A C13G G22C C31G | 0.05 |
| G7A A11U A12C G17A G27A G35A | 0.01 |
| A6U U9C U32G U43A C45U | 0.03 |
| A6U C13G G22C G33A C42U G44U | 0.07 |
| A6U C8U G36U | 0.68 |
| A6G G29A C37G | 0.01 |
| G7A A12C A24C C31A A41C C42G | 0.09 |
| A6U C13A G29C U32G | 0.05 |
| A6G U20C A26C | 0 |
| G7A A12C C15A G22U A41C | 0.03 |
| A6G G30C G36U C42A G44A | 0.02 |
| A6U C8A G21U G29U G44A | 0.2 |
| A6U C13U U43C | 0.19 |
| G7A G17U C46A | 0.08 |
| G7A A11G G19A C37A | 0.03 |
| A6U G29A U34A G36U | 0.07 |
| A6U G21U G30U U34C U43A | 0.05 |
| A6U C10U G19A U20A U38A U43A | 0 |
| A6U G30C C45G | 0.03 |
| G7A A12G G22U G29C A39G | 0.01 |
| A6U C31U C46A | 0.14 |

| Variant | self-cleavage |
| --- | --- |
| A6G G27C U34G | 0.04 |
| A6U C10G A14U G35U | 0.04 |
| G7A C8U G17U | 0.14 |
| A6U A25U G35C | 0.04 |
| G7A C10A G17U C18U | 0.01 |
| A6U C18U A26G C31A G40A | 0.01 |
| G7A A16G C31G | 0.01 |
| A6G G29U G44A | 0.08 |
| G7A C8U U9G G22U U32A | 0.06 |
| G7A C10G C23U G33C | 0.04 |
| G7A A25U A26C G29U G30C | 0.17 |
| G7A A11C A16G G21U | 0.02 |
| G7A C13A G21U | 0.2 |
| A6U U9C U34C | 0.04 |
| A6U A12C G29C | 0 |
| G7A A14U C15A G21U A26C | 0.08 |
| A6U C8U C18A G44A | 0.09 |
| A6G G35C C45A | 0.03 |
| A6G G22A C45A | 0.01 |
| A6U G17C G22U C42A | 0.89 |
| A6U G19A C31A G44U | 0.1 |
| A6U U28G G36C C37U | 0.03 |
| A6U A11U A14C C23U A26G | 0.02 |
| A6U G29U G30U | 0.54 |

| Variant | self-cleavage |
| --- | --- |
| G7A C23A A26U C37A | 0.12 |
| G7A C13G G36C A39U U43C | 0.11 |
| A6U C8G C15U G17C U43A | 0.06 |
| A6U A11C C45U | 0.03 |
| G7A C23U C45A | 0.21 |
| G7A C10A A14G C18U U28C C46G | 0.02 |
| A6U A39U U43C | 0.14 |
| A6G U28C U43C | 0.06 |
| A6U G22U A25U U28G G35C G36U | 0.18 |
| A6G G30U C37A C45G | 0.02 |
| G7A C15U A41G | 0.53 |
| A6U C18G G19A C23U C31A G35C G40U C46G | 0.01 |
| G7A C8U G17A C45U | 0.19 |
| A6U C31U G33A G36A | 0.2 |
| A6U G7U G29C A41C | 0.15 |
| G7A C23G C37A U43C | 0.12 |
| A6U A26G G29A | 0.4 |
| G7A G17A G19C A41U | 0.03 |
| A6U G35A C42G G44C | 0.07 |
| A6U U20A G21C C23U | 0.49 |
| G7A C10A G44A | 0.02 |
| G7A C10A A12C G40A | 0.01 |
| A6U A12G C42U U43A | 0 |
| A6U C18G A24U A25G | 0.15 |

| Variant | self-cleavage |
| --- | --- |
| A6U U9G G22C C23G C37U | 0.03 |
| G7A C8A G22U G35U A39G G40A | 0.02 |
| A6U C13G C31U G44U | 0.01 |
| A6U A11U G27U G30A | 0.56 |
| A6U G30U U34A | 0.04 |
| A6U U32G C37U | 0.03 |
| A6U G17A A24U U28C A39C | 0.07 |
| A6U A11C A26U C31U | 0.02 |
| G7A C13A C15U G17C G19A G35C | 0.19 |
| A6U C10G G27A G40A C42G | 0 |
| A6U C13A C23U U32C C45A | 0.05 |
| A6U C10U U38A | 0.05 |
| A6U A11G C18A A24C | 0.01 |
| G7A A11U A12U A16U C18G | 0.01 |
| A6U G7U C10U C15U | 0.02 |
| A6U G21U G27A | 0.16 |
| A6G U9G A26U G27A | 0.03 |
| A6U C10A C15U C18G A24C U34G | 0.03 |
| A6U G36C A39G | 0.06 |
| G7A G17C C37U | 0.19 |
| A6U C10U G17C | 0.1 |
| A6G U34C G36U C46U | 0.13 |
| G7A C23A G44U | 0.28 |
| G7A C31U U34G G35A G36U C45G | 0.06 |

| Variant | self-cleavage |
| --- | --- |
| A6U A12C A41U U43A | 0.03 |
| G7A C23G G29A U32G C42G | 0.03 |
| A6U A12U U38C | 0.32 |
| G7A C8U C18G G22A G40C C46A | 0.14 |
| A6U G7U A24G | 0.07 |
| A6U A16C G33U | 0.13 |
| G7A A14G A24C A41G | 0.26 |
| A6U A12U C13U C15G | 0.06 |
| G7A A11G G29C G40A | 0.01 |
| G7A C10U A41C C45G | 0.02 |
| A6U G17U G22U C23G | 0.18 |
| G7A C8A C13G C18U | 0.32 |
| A6U G7U G17C A26C U28C U32C C37G | 0.01 |
| A6U G21U G40U | 0.39 |
| G7A C18U A24G U32G A41C C45G | 0.01 |
| A6U G33U U38A A39U | 0.18 |
| G7A C10U G17U A25U U34A | 0.03 |
| A6U G19A A25C | 0.32 |
| A6G G30A G33A C46A | 0.04 |
| A6U A41U U43G C46A | 0.91 |
| G7A C10G G35C G40U | 0.02 |
| A6G G30U C31A | 0.03 |
| G7A C8U U9G C10G C18U G22A G30A | 0.01 |
| A6U G22A G27U G35C G40A | 0.41 |

| Variant | self-cleavage |
| --- | --- |
| A6U U20A A25G A39C | 0.08 |
| A6U A14U G19C G36U | 0.14 |
| G7A G19U A39U | 0.03 |
| G7A C42U G44C | 0.01 |
| G7A C13G U20A G22A C45U C46G | 0.37 |
| G7A G17A G36A U38G | 0 |
| A6U C10G G29U U43G G44U | 0.02 |
| G7A A12G G17C G22A | 0.01 |
| A6U U9G C23G A26G | 0.08 |
| G7A G19C G33A | 0.1 |
| A6U C23G G44U | 0.11 |
| G7A C10G C31A | 0.24 |
| G7A A24G A25G G29A G33U | 0.02 |
| A6G G22U C45A C46U | 0.17 |
| G7A C18G G27A C42G | 0.02 |
| G7A G21A A26G C37G G44C | 0.05 |
| A6U C8G A12C C13A | 0.01 |
| A6G G33A C37U | 0.01 |
| A6G U9G A25U G40A | 0.02 |
| G7A C8A C10U C13G G21A A39C | 0.12 |
| A6G G29C U32A G36A C37A C46A | 0.07 |
| A6G U9C U32C G36U | 0.03 |
| A6U G27U G36U A39C G40U | 0.25 |
